About 60 (0.1%) of roughly 46,000 compounds were called active. Another 3% or so got no clear call; they are omitted. Calls come from the whole dose curve; as a rule, active = well fitted inhibition curve with a large enough effect; inconclusive = small, poorly fitted or top-dose-only effect; inactive = no such curve, though single readings can be large or run the other way. The list shows a part of the results.
Assay: Primary qHTS assay for Inhibitors of ovarian cancer metastasis using an organotypic tumor microenvironment (TME) model.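 For activity change, negative = inhibition: plate controls were DMSO wells for no effect and tomatine positive control wells for full effect.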 Note: nearly all actives have a fitted effect of over 65% in size.
Conditions: SKOV3ip1-GFP adhesion/invasion on 3D omental model, fluorescence; series mostly up to 45.8 µM; activity change, negative = inhibition: at the top concentration
Outline: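 qHTS, 4-pt dose (0.36-46 umol/L); SKOV3ip1-GFP, 1,200 cells/well, no FBS; primary omental fibroblast/mesothelial co-culture 48 h pre-grown; 2 h RT + 16 h 37 C; PBS wash, 4% PFA; GFP count 488/509 nm.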

outcome, inactive:
COc1ccc(-n2ncc(C(=O)N3CCN(C(=O)c4ccco4)CC3)c2C2CCN(C(=O)OC(C)(C)C)CC2)cc1
Cc1ccc(/C=C/C(=O)N2CCC(c3nc4ccccc4o3)CC2)cc1
CCCCCOc1ccccc1CN1C(=O)C(=O)c2cc(C)ccc21
Cc1ccc(NC(=O)CN2C(=O)COc3ccc(S(=O)(=O)N4CCOCC4)cc32)cc1N(C)C
Cc1nn(CC(=O)NCCc2ccccc2)c(=O)c2nn(-c3ccccc3)c(C)c12
CCCCC(CC)CNC(=O)CCCCn1c(=O)[nH]c2ccsc2c1=O (stereo not drawn)
COc1ccc(C2CC(=O)c3cnc4c(-c5ccc(F)cc5)c(C)nn4c3C2)cc1OC (stereo not drawn)
CCN(CC)S(=O)(=O)c1ccc2c(c1)c(=O)c(C(=O)NCCc1ccccc1)cn2C
Cc1ccc(NC(=O)c2c3c(nc4ccccc24)C(=O)N(C2CCCCC2)C3)cc1F
Cc1cc(=O)n(Cc2ccccc2)c2c1c(C)nn2-c1ccccc1
Cc1ccc(NC(=O)Nc2cn(C)c(=O)c3ccccc23)c(Cl)c1
Cc1ccc2oc(=O)c3cnn(CC(=O)N4CCN(c5ccccc5F)CC4)c3c2c1
COc1ccc(-n2c(SCC(=O)NCc3ccco3)nc3c([nH]c4ccccc43)c2=O)cc1
Cc1ccc(NC(=O)CSc2nc3ccccc3c(=O)n2CCC(=O)NC2CCCCC2)cc1C
CCC(=O)N1CCc2cc(CNS(=O)(=O)c3ccc(C(C)C)cc3)ccc21
CCCSc1ncc(Cl)c(C(=O)N2CCN(c3cccc(Cl)c3)CC2)n1
COc1cc(NC(=O)CCc2c(C)nc3c(-c4ccc(F)cc4)c(C)nn3c2C)cc(OC)c1OC
CCc1nn(CC(=O)NCCc2ccc(OC)c(OC)c2)c(=O)c2cc3occc3n12
COc1ccc(NC(=O)C2CCCN(S(=O)(=O)c3c(C)[nH]c(=O)[nH]c3=O)C2)cc1 (stereo not drawn)
CCOC(=O)c1c(C)[nH]c(C)c1S(=O)(=O)N(C)CC(=O)NCc1ccc(C)cc1
COc1ccc(-c2nn(-c3ccc(C)c(Cl)c3)c3c2cnc2cc(OC)c(OC)cc23)cc1

Activity change, negative = inhibition, inactive:
CC(C)Cc1ccc(S(=O)(=O)NCc2nc3cccnc3n2Cc2ccccc2)cc1 4.99%
COc1ccc(-c2ccc(CNCCCSc3nnnn3C)o2)cc1Cl -3.28%
Cc1cc2oc(C(=O)Nc3ccc(S(=O)(=O)N4CCC(C)CC4)cc3)cc(=O)c2cc1C 13.2%
CC(C)c1ccccc1Cc1cc(C(=O)Nc2ccc(S(=O)(=O)c3ccccc3C(C)(C)C)cc2)c(O)c(O)c1O -23.7%
Cc1ccc(-n2nc3c(N4CCC(C(=O)NC5CCCCC5)CC4)nnc(C)c3c2C)cc1 10.8%
COc1ccc(NC(=O)c2c(NCc3ccc(OC)c(OC)c3OC)sc3c2CCC3)c(OC)c1 1.55%
COc1ccccc1N1CCN(CCCNC(=O)c2nnc(Cc3ccc(F)cc3Cl)o2)CC1 -2.95%
CC1=C(c2ccc(C)c(C)c2)S(=O)(=O)N=C1N1CCC(C(=O)NCc2ccccc2C)CC1 4.14%
Cc1cccc(-c2noc(-c3ccc(NCc4ccccc4)c([N+](=O)[O-])c3)n2)c1 9.98%
O=C(O)CCc1ccc(NCc2cccc(Oc3ccccc3)c2)cc1 -9.37%
Cc1ccc(N(C)S(=O)(=O)c2ccc(-c3coc(C)n3)cc2)cc1 0.836%
COc1cc(C2C(C(=O)Nc3ccc(Cl)cc3)=C(C)Nc3nc(SC)nn32)cc(OC)c1OC (stereo not drawn) 2.66%
CCOc1ccc(CCNC(=O)c2cc3sccc3n2CC)cc1OCC -0.238%
Fc1ccc(CSc2nncn3c2cc2occc23)c(Cl)c1 1.23%
CCc1nc2ccc(C(=O)N3CCN(c4cc(C)ccc4C)CC3)cc2nc1CC 17.1%
CC1=C(C(N)=O)C(c2cccc(Br)c2)n2nc(SCc3ccccc3Cl)nc2N1 (stereo not drawn) 9.46%
CC(C)c1ccc(S(=O)(=O)N2CCN(CC(=O)Nc3ccccc3C(F)(F)F)CC2)cc1 1.77%
CC(C)CCNC(=O)c1ccc2nc(CCc3ccccc3)oc2c1 4.53%
CC(C)Nc1nc2c(S(=O)(=O)c3cccc(Cl)c3)nnn2c2ccsc12 5.35%
Cc1ccc(C(=O)NCC(c2cccs2)S(=O)(=O)c2ccccc2)cc1C (stereo not drawn) 2.51%
COc1cc(CN(C(=O)Nc2cccc(Cl)c2)c2ccccn2)cc(OC)c1OC -0.75%
COC(=O)c1nnn(CC(=O)Nc2c(C)cccc2C)c1N -7.46%
COc1ccc(CCNc2nc(SCc3ccccc3F)nc3ccccc23)cc1OC -11.4%
COC(=O)c1ccc(C(=O)OC)c(NC(=O)c2c(-c3ccccc3)noc2C)c1 -8.84%
CCOC(=O)c1c(C)oc2nc(C)nc(NCCc3ccc(OC)c(OC)c3)c12 3%
COC(=O)c1sc(N2C(=O)c3oc4ccc(C)cc4c(=O)c3C2c2ccc(O)c(OC)c2)nc1C (stereo not drawn) 18.6%
CCc1ccc(NC(=O)C2CCCN2S(=O)(=O)c2ccc3nc(-c4ccccc4)[nH]c3c2)cc1 (stereo not drawn) -13.4%
Cc1csc2nc(COc3ccc(NC(=O)C(C)C)cc3)cc(=O)n12 -22.8%
CCOC(=O)Cc1c(C)nc2cc(-c3ccc(C(C)(C)C)cc3)nn2c1C -20.8%
CCOC(=O)c1c(NC(=O)CSc2nc(-c3ccc(OC)cc3)cc(C(F)(F)F)n2)sc(C)c1C 3.98%
Cn1c(=O)n(CC(=O)O)c(=O)c2c1nc1n2CCCN1c1ccc(Cl)cc1 20.5%
COc1ccc(-n2ncc(C(=O)N3CCN(C4CCCCC4)CC3)c2C2CCN(C(=O)OC(C)(C)C)CC2)cc1 8.26%
C=CCc1ccccc1OCc1nc2ccc(C)cc2[nH]1 -8.44%
Cc1ccccc1NC(=O)CC1NCCNC1=O (stereo not drawn) -13.9%
CCc1ccccc1NC(=O)c1ccc(Cn2nc(N3CCN(c4ccccc4)CC3)ccc2=O)o1 1.75%
Cc1cccc(N2CCN(C(=O)C3CCN(S(=O)(=O)c4c(C)noc4/C=C/c4ccccc4F)CC3)CC2C)c1 (stereo not drawn) -4.52%
CCCn1c2ccccc2c2cnn(CC(=O)N(CC)c3cc(C)ccc3C)c(=O)c21 3.88%
CCOC(=O)c1cc2c(=O)n3ccccc3nc2n(Cc2ccco2)c1=NC(=O)c1cccc(C)c1 29.8%
CCCNC(=O)CSc1c2c(nc3ccc(Cl)cc13)CCCC2 -13.3%
CCOc1ccccc1NC(=O)c1cc2cc3cc(C)ccc3nc2s1 2.96%
CCOc1ccc(NC(=O)CC2C(=O)N(c3ccccc3)C(=O)N2C2CCCC2)cc1 (stereo not drawn) -21.6%
Cc1ccc(CNC(=O)Cn2nc(N3CCN(c4ccccc4)CC3)ccc2=O)cc1 8.4%
Cc1cccc(N2CCN(C(=O)c3cnn(-c4ccc(F)cc4F)c3C3CCN(C(=O)OC(C)(C)C)CC3)CC2)c1C 2.4%
COCc1cc(C)nc2sc(C(=O)Nc3ccc(C(C)=O)cc3)c(N)c12 2.68%
CNC(=O)CCCN1C(=O)CCn2nc(-c3cn(C)c4ccccc34)cc21 -4.93%
CCc1cccc(NC(=O)CSc2nc3ccccc3nc2N2CCCCC2)c1 -20.6%
COc1ccc(OCC(=O)Nc2cccc(C(=O)OCc3cc(=O)n4nc(C)sc4n3)c2)cc1 0.0759%
COc1cccc(NC(=O)c2sc3nc(C)c(C(=O)Nc4ccc(C)cc4C)c(-c4ccco4)c3c2N)c1 -8.29%
Cc1nc2c3ccccc3nc(NNC(=O)CCC(=O)N3CCN(c4cc(Cl)ccc4C)CC3)n2n1 5.7%
Cc1ccc(C)c(N2CCN(C(=O)CCS(=O)(=O)c3cc(Br)cc4c3N(C(=O)C3CC3)CC4)CC2)c1 -4.11%
COC(=O)c1ccc2c(=O)n(CCCCCC(=O)N3CCN(c4cc(C)ccc4C)CC3)c(=O)[nH]c2c1 10.2%
COc1cc2nc(NCCc3ccccc3)n3nc(-c4cccnc4)nc3c2cc1OC 2.5%
Cc1nn(-c2ccccc2)c2sc(C(=O)Nc3cccc(Cl)c3)cc12 -15.1%
CCOC(=O)c1c(NC(=O)/C=C/c2ccc(OCC)cc2)sc(C(C)=O)c1C -7.13%
CC(=Cc1ccccc1)C=C1SC(=S)N(CC(=O)O)C1=O 2.99%
CCOc1ccc(NC(=O)CC2C(=O)N(c3ccc(OC)cc3)C(=O)N2C2CCCCC2)cc1 (stereo not drawn) 9.72%
COc1ccc(CNC(=O)C(Cc2ccccc2)NS(=O)(=O)c2ccc3c(c2)CCN3C(C)=O)cc1 (stereo not drawn) 3.72%
CCOC(=O)COc1cc(C)c(Cl)cc1C(=O)c1ccn2nc(-c3ccc(OC)cc3)cc2n1 0.459%
COc1ccc(NC(=O)c2cccn2-c2nnc(N3CCCCC3)s2)c(OC)c1 -7.3%
CS(=O)(=O)Nc1ccc(-c2nc3ccccc3s2)cc1 2.39%
O=C(CSc1ncc2c(n1)-c1cc(Cl)ccc1N(Cc1ccccc1)S2(=O)=O)NCCc1ccccc1 2.46%
Cc1ccc(NC(=O)Nc2c(C)n(C)n(-c3ccccc3)c2=O)c(Cl)c1 -11%
COc1ccccc1NC(=O)c1ccc(-c2nc(COc3ccc(C)cc3)c(C)o2)cc1 2.15%
CCOc1ccc(NC(=O)C2=C(C)C(=O)OC23CCC(C)CC3)cc1 (stereo not drawn) -1.2%
CCOC(=O)c1ccc(NC(=O)CSc2nc(-c3ccc(F)cc3)cc(C(F)(F)F)c2C#N)cc1 18.1%
CCCCOc1ccc(CNC(=O)CN2C(=O)CCn3nc(-c4cn(C)c5ccccc45)cc32)cc1 -4.5%
CCC1CN(C(=O)NCc2ccc(F)cc2)c2cc(Cl)ccc2O1 (stereo not drawn) 9.45%
CC(C)c1ccc(NC(=O)Cc2ccc(NC(=O)N3CCCCc4ccccc43)cc2)cc1 -13.5%
COc1ccc(C2CC(=O)c3cc(-c4nc(-c5ccc(C)cc5)cs4)c(=O)[nH]c3C2)cc1 (stereo not drawn) 1.39%
CCOc1cccc(CNC(=O)c2ccc(N3CCCC3)c(NC(=O)Nc3ccccc3CC)c2)c1 -5.31%
Nc1nc(Nc2cccc(Cl)c2)sc1C(=O)c1ccc(F)cc1 -17.2%
CCOc1ccc(/C=C/C(=O)Nc2sc3c(c2C(=O)OC)CCCC3)cc1 -12.1%

From PubChem BioAssay AID1963576 (National Center for Advancing Translational Sciences (NCATS), 2024)
